This is one part of the list. The full chains were built here from the parent and the listed change. Values near 0.05 are background.
B1: TEV protease; numbered along this chain (parent)
chain: MGESLFKGPRDYNPISSSICHLTNESDGHTTSLYGIGFGPFIITNKHLFRRNNGTLVVQSLHGVFKVKDTTTLQQHLVDGRDMIIIRMPKDFPPFPQKLKFREPQREERICLVTTNFQTKSMSSMVSDTSCTFPSGDGIFWKHWIQTKDGQCGSPLVSTRDGFIVGIHSASNFTNTNNYFTSVPKNFMELLTNQEAQQWVSGWRLNADSVLWGGHKVFMVKPEEPFQPVKEATQL

Variants of: B1
Assay: raw area under fraction-flipped curve 0-4 h after induction (AUC4h, not background-subtracted), DNA-recorder readout of cleavage of the substrate (dimensionless); higher = more cleavage of the substrate by the protease variant
Details: temperature: 34 °C; time window: 0-4 h after rhamnose induction
Description: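 In vivo DNA recorder in E. coli TOP10(DE3) ΔrhaA at 34 °C. Each TEVp single-site mutant (parent TEVp 0) is paired with a single-site variant of the 7-mer TEVs (canonical ENLYFQ|S). The substrate sits between flexible linkers in a Bxb1-sfGFP-TEVs-SsrA fusion, so cleavage stabilises Bxb1 and speeds flipping of a recombination array, read by NGS. The value is the raw area under the fraction-flipped curve over 0-4 h after rhamnose induction (AUC4h), with ≥20 reads per time point. It is not background-subtracted; inactive controls average about 0.047.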
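Also: Bxb1 expression induced with 0.2% (w/v) L-rhamnose at OD600 near 0.5, cultures sampled hourly, flipped fraction per protease–substrate barcode pair counted by paired-end Illumina sequencing.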

Row | Variant | area with substrate ENLYFCS | area with substrate ENLYFES | area with substrate ENLYFFS | area with substrate ENLYFHS | area with substrate ENLYFIS | area with substrate ENLYFKS | area with substrate ENLYFLS | area with substrate ENLYFMS | area with substrate ENLYFPS | area with substrate ENLYFWS | area with substrate ENLYFYS | area with substrate ENLYFNS | area with substrate ENLYFVS | area with substrate ENLYFGS | area with substrate ENLYFRS | area with substrate ENLYFTS | area with substrate ENLYFSS | area with substrate ENLYFDS
1 | N186D | 0.0409 | 0.0596 | 0.0618 | 0.0611 | 0.0527 | 0.0717 | 0.0709 | 0.0757 | 0.0924 | 0.0505 | 0.0661 |  |  |  |  |  |  | 
2 | F133H | 0.0596 | 0.0679 |  | 0.0559 | 0.0494 |  | 0.0518 | 0.0683 | 0.0408 |  | 0.0625 | 0.0652 | 0.0504 |  |  |  |  | 
3 | L5W | 0.0405 |  |  | 0.0678 | 0.0556 |  |  | 0.0569 | 0.0686 | 0.0541 |  |  |  | 0.0888 | 0.0921 | 0.0475 |  | 
4 | T55L | 0.0636 | 0.0525 |  | 0.0638 | 0.0487 |  |  |  | 0.0524 | 0.0521 |  | 0.0642 | 0.0607 |  |  | 0.0606 |  | 
5 | F101C | 0.0573 | 0.0535 | 0.0642 | 0.0477 | 0.057 | 0.056 | 0.0641 | 0.0624 | 0.0557 | 0.0866 | 0.042 |  | 0.0587 | 0.0541 | 0.0486 | 0.0576 | 0.0604 | 
6 | E25H | 0.0595 | 0.0422 | 0.0555 | 0.0722 | 0.037 | 0.0642 |  | 0.071 | 0.0573 | 0.0534 | 0.0515 |  | 0.0643 |  | 0.0469 | 0.123 |  | 0.0576
7 | T147H | 0.08 | 0.0452 |  |  | 0.0687 |  |  | 0.055 | 0.0677 |  |  | 0.0599 | 0.057 | 0.0492 | 0.0611 | 0.0632 | 0.0657 | 0.0485
8 | L190A | 0.0647 | 0.0574 | 0.0669 |  | 0.052 |  |  | 0.077 | 0.0412 | 0.0795 | 0.0537 | 0.0643 | 0.0769 |  |  |  | 0.068 | 0.0818
9 | Q146A | 0.056 |  |  |  |  | 0.0811 | 0.0442 | 0.0968 | 0.064 |  |  | 0.068 |  |  | 0.0695 |  | 0.0265 | 
10 | N175H | 0.0605 |  |  |  | 0.0612 |  |  |  |  |  |  |  |  |  | 0.0617 |  |  | 
11 | L73C | 0.0648 | 0.0629 | 0.0739 | 0.0534 | 0.0651 | 0.0856 | 0.0662 | 0.0591 | 0.057 |  | 0.0573 |  | 0.0459 | 0.065 |  | 0.0716 |  | 
12 | M125G | 0.0739 | 0.0627 | 0.0623 |  | 0.0624 | 0.0666 |  | 0.0634 | 0.0586 | 0.0617 | 0.0588 |  |  |  | 0.0579 | 0.0316 | 0.0525 | 0.0803
13 | S154K | 0.0594 | 0.0518 | 0.067 |  | 0.0544 |  | 0.058 | 0.0322 |  |  |  | 0.0687 | 0.0533 | 0.0504 | 0.0595 | 0.0569 | 0.0539 | 0.0504
14 | Q118R | 0.0597 | 0.0541 | 0.0646 | 0.0472 | 0.0665 |  | 0.0592 | 0.0652 | 0.0567 |  |  |  |  | 0.0518 | 0.0741 | 0.0548 |  | 0.0843
15 | T159S | 0.059 | 0.0637 | 0.0741 |  | 0.0579 | 0.0563 | 0.0601 |  | 0.058 | 0.0534 | 0.0758 | 0.0672 |  |  |  | 0.0601 | 0.0617 | 
16 | M125C | 0.0538 | 0.0536 |  | 0.0519 | 0.0598 |  |  |  | 0.0585 |  | 0.0676 |  |  |  |  | 0.0623 |  | 

Row | Variant | area with substrate ENLYFCS | area with substrate ENLYFES | area with substrate ENLYFFS | area with substrate ENLYFHS | area with substrate ENLYFIS | area with substrate ENLYFKS | area with substrate ENLYFLS | area with substrate ENLYFMS | area with substrate ENLYFPS | area with substrate ENLYFWS | area with substrate ENLYFYS | area with substrate ENLYFNS | area with substrate ENLYFVS | area with substrate ENLYFGS | area with substrate ENLYFRS | area with substrate ENLYFTS | area with substrate ENLYFSS | area with substrate ENLYFDS
17 | R87F | 0.043 | 0.0573 | 0.0754 |  | 0.0543 | 0.0641 | 0.0398 | 0.0576 | 0.071 | 0.0531 |  | 0.0559 | 0.0589 | 0.0595 | 0.0605 | 0.068 | 0.0646 | 
18 | D82P | 0.0427 | 0.0624 | 0.0492 |  | 0.0336 | 0.0492 |  |  | 0.0618 |  | 0.012 |  |  |  |  | 0.061 |  | 0.0444
19 | R10T | 0.0604 |  | 0.0887 | 0.0873 |  |  |  | 0.0721 | 0.0615 |  |  | 0.0644 |  |  |  | 0.0588 |  | 0.063
20 | D82A | 0.0365 |  | 0.0746 | 0.0485 | 0.0561 |  |  |  | 0.0553 |  |  | 0.0631 | 0.0476 |  | 0.0415 | 0.08 |  | 
21 | R81S | 0.0592 | 0.0714 | 0.0849 | 0.0708 | 0.0741 | 0.0555 | 0.0547 | 0.0652 | 0.0551 | 0.0528 |  | 0.0766 | 0.0677 | 0.0562 | 0.0811 | 0.0604 | 0.0693 | 0.0472
22 | W212R | 0.0456 | 0.0576 |  |  | 0.0575 |  | 0.0356 | 0.0601 | 0.0759 | 0.0543 | 0.0666 | 0.0672 |  |  |  | 0.0448 | 0.0551 | 0.0611
23 | T71Q | 0.0982 |  | 0.0612 |  | 0.0556 |  |  | 0.0804 |  |  |  |  | 0.0466 | 0.0912 | 0.0423 |  |  | 0.04
24 | R106V | 0.0429 |  | 0.0589 | 0.0607 | 0.0425 | 0.0499 | 0.0586 | 0.0703 | 0.0613 | 0.0758 | 0.0539 |  | 0.065 | 0.0604 | 0.0619 | 0.0703 | 0.0592 | 0.0826
25 | I36K | 0.036 |  |  | 0.0501 | 0.0428 |  | 0.048 |  | 0.0463 |  |  | 0.0451 | 0.0344 |  | 0.0293 |  | 0.0496 | 
26 | V113F | 0.0673 |  | 0.0589 |  |  |  |  | 0.0837 |  | 0.0452 | 0.0727 | 0.0612 |  |  |  | 0.054 |  | 
27 | R87A | 0.0542 |  | 0.0627 |  |  |  |  | 0.0699 |  |  |  |  | 0.0713 |  |  |  | 0.0471 | 
28 | K7G | 0.0549 | 0.0632 | 0.073 | 0.0677 | 0.0538 |  | 0.0333 | 0.0634 | 0.0828 | 0.0738 |  | 0.0615 | 0.0541 | 0.0402 | 0.0596 | 0.0615 |  | 
29 | K68G | 0.0675 | 0.0679 | 0.0712 |  | 0.0542 |  |  | 0.0767 |  |  | 0.0671 |  |  |  | 0.0529 | 0.07 |  | 0.098
30 | Q227C | 0.0573 | 0.0721 | 0.065 |  | 0.0592 | 0.0558 | 0.0579 | 0.0697 | 0.0587 | 0.0966 |  | 0.0604 | 0.0523 |  | 0.0596 | 0.0571 |  | 
31 | V67Y | 0.0674 |  |  |  | 0.0832 |  | 0.0559 |  |  |  | 0.0667 |  | 0.0433 |  | 0.0751 | 0.0579 | 0.0567 | 
